From PubChem BioAssay AID1508642 (National Center for Advancing Translational Sciences (NCATS), 2021)
The whole screen tested about 43,000 compounds, of which about 200 (0.47%) were called active. Inconclusive results (about 12%) are left out. Calls follow the shape of the dose curve; as a rule, active = well fitted cell-killing curve with a large enough effect; inconclusive = small, poorly fitted or top-dose-only effect, or effect the other way; inactive = flat fitted curve, though single readings scatter. Some of the results follow.

Test: Cell viability qHTS assay in S16 Pmp22-F2sN cells; also: nearly all actives have a fitted effect of over 65% in size
Details: S16 Pmp22-F2sN Schwann cells (luciferase reporters placed in the Pmp22 gene) viability, CellTiter-Glo, 24 h; series mostly up to 57.5 µM; activity change, negative = cytotoxicity: at the top concentration
Outline: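 Luminescence from CellTiter-Glo, read by CCD camera after a 15 min room-temperature incubation, served as the viability signal. Reporter Schwann cells (S16 Pmp22-F2sN) had been treated with pin-transferred compounds for 24 h at 37C.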
% is scaled to controls: 0 for no effect and ±100 for the full control effect; potency is read from the fitted curve at half-maximal effect.

| SMILES | activity change, negative = cytotoxicity | Potency |
| --- | --- | --- |
| CCCNc1c(NC(=O)c2ccc(OCCC)cc2)c(=O)oc2ccccc12 | inactive: -0.316% |  |
| CCOC(=O)c1c(NC(=O)c2nc(SC(C)C)ncc2Cl)sc2c1CCCC2 | inactive: 17.4% |  |
| Cn1c(SCc2ccc(C(F)(F)F)cc2)nc2c([nH]c3ccccc32)c1=O | inactive: 0.658% |  |
| O=c1cc(N2CCN(c3ccc(F)cc3)CC2)[nH]c(=O)n1-c1ccc(Br)cc1 | inactive: -3.82% |  |
| Cc1ccccc1Cn1c(=O)n(Cc2ccc(Cl)cc2)c(=O)c2cccnc21 | inactive: 3.11% |  |
| COc1ccc(OC)c(NC(=O)CSC2=Nc3ccccc3C3=NC(CC(=O)NCc4ccc5c(c4)OCO5)C(=O)N23)c1 (stereo not given) | inactive: -6.87% |  |
| COc1cc(Cl)c(C)cc1NC(=O)c1sc2nc3n(c(=O)c2c1C)CCCCC3 | inactive: 2.91% |  |
| CC(=O)c1c(C)oc2c(Cl)cc(NS(=O)(=O)c3ccc(Cl)cc3)cc12 | inactive: 25.9% |  |
| CN(C)c1ccc(C(CNS(=O)(=O)c2ccccc2)N2CCc3ccccc32)cc1 (stereo not given) | inactive: -2.03% |  |
| CCn1cc(S(=O)(=O)c2cc(C)cc(C)c2)c(=O)c2cc(F)c(N3CCCC3)cc21 | inactive: 0.998% |  |
| COc1ccc(N2CCN(S(=O)(=O)CCNC(=O)Cc3ccc(Cl)cc3)CC2)cc1 | inactive: 2.38% |  |
| CCOc1ccc(CCNC(=O)c2nnc(Cc3cc(OC)c(OC)c(OC)c3)o2)cc1OCC | inactive: -4.34% |  |
| COc1ccc(CCNC(=O)C2(c3cccs3)CCOCC2)cc1OC | inactive: 3.61% |  |
| CCCOc1cccc(C(=O)Nc2cccc(NC(=O)c3ccc(C(C)(C)C)cc3)c2)c1 | inactive: -0.402% |  |
| COc1cc(OC)cc(C(=O)Nc2ccccc2-c2nc3ccccc3s2)c1 | inactive: -2.84% |  |
| COc1ccc2[nH]c(C)c(CCNS(=O)(=O)c3cc(F)ccc3OC)c2c1 | inactive: 8.68% |  |
| COc1cc(-c2ccno2)ccc1S(=O)(=O)N1CCN(c2ccc(C(C)=O)cc2)CC1 | inactive: -20.8% |  |
| COc1ccc(-c2cc(C(F)(F)F)n3nc(C(=O)Nc4cc(Cl)cc(Cl)c4)cc3n2)cc1 | inactive: 7.22% |  |
| CCCCC(=O)Nc1ccccc1C(=O)OCc1cc(=O)n2nc(C3CCCCC3)sc2n1 | inactive: -2.16% |  |
| COc1ccc(-c2nc3c4ccccc4n(CC(=O)Nc4cc(F)ccc4F)c(=O)n3n2)cc1 | inactive: 11.8% |  |
| CCOc1ccc(OC(=O)c2cn(-c3ccc(C)cc3)c(=O)c3ccccc23)cc1 | inactive: 3.55% |  |
| Cc1cc(C)c(NC(=O)C(C)n2nc(-c3ccc(C)c(C)c3)ccc2=O)c(C)c1 (stereo not given) | inactive: 4.99% |  |
| Cc1cc(C)cc(OCC(=O)NCCc2nc3ccccc3[nH]2)c1 | inactive: 5.76% |  |
| COc1ccc(-c2cc(C(C)=O)c(C)n2CCC(=O)NCc2ccccc2OC)cc1 | inactive: 7.74% |  |

| SMILES | activity change, negative = cytotoxicity | Potency |
| --- | --- | --- |
| Cc1nn(-c2ccccc2)c(OC(=O)C(C)C)c1Sc1ccccc1 | inactive: -1.61% |  |
| Brc1cccc(CNCCSc2nnnn2-c2ccccc2)c1 | inactive: 6.53% |  |
| CCc1ccccc1N(C)C(=O)Cc1c(C(=O)O)c(C)cn1C | inactive: -1.4% |  |
| COc1ccc(Cn2c(SCc3ccc(C(=O)NC4CCCC4)cc3)nc3ccncc32)cc1 | inactive: 4.51% |  |
| CCOC(=O)c1c(C)oc2ncnc(N3CCN(c4ccccc4OC)CC3)c12 | inactive: 7.69% |  |
| O=C(COc1ccc2oc3c(c2c1)CCCC3)Nc1ccc(Br)cc1 | inactive: 22.2% |  |
| COC(=O)c1cccc(-n2c(CCC(=O)O)ccc2-c2ccc(OC)cc2)c1 | inactive: -22.2% |  |
| Cc1ccc(Cl)cc1NC(=O)C(C)n1nnc2sc(-c3ccccc3)cc2c1=O (stereo not given) | inactive: 3.36% |  |
| COc1cccc(CNC(=O)CCc2cn(Cc3ccccc3Cl)c3ccccc23)c1 | inactive: -23% |  |
| CCCN1CCN(CCNC(=O)Nc2ccc(OC)cc2OC)CC1 | inactive: 10.4% |  |
| CCc1ccc(C(=O)c2cn(CC(=O)Nc3ccc(F)cc3)c3ccc(OC)cc3c2=O)cc1 | inactive: 0.14% |  |
| CC(=O)N1CCN(c2csc3ccc(F)cc3c2=O)CC1 | inactive: 4.63% |  |
| COc1ccc(NC(=O)Cn2c(=O)n(C(C)C)c(=O)c3oc4ccccc4c32)cc1Cl | inactive: -10.1% |  |
| Cc1ccccc1NC(=O)CSc1nc(-c2ccccc2C)nc2cc(=O)[nH]n12 | inactive: -16.9% |  |
| COc1ccccc1N(CC(=O)NCCSCc1ccccc1)S(=O)(=O)c1ccc(C)cc1 | inactive: 15.5% |  |
| COCCNC(=O)Cn1nc(N2CCN(c3ccccc3OC)CC2)ccc1=O | inactive: 0.37% |  |
| CCOc1ccc(NC(=O)N2CCN(S(=O)(=O)c3ccc4c(ccn4C)c3)CC2)cc1 | inactive: -0.419% |  |
| Cc1ccc(N(CC(=O)NCc2ccc(Cl)cc2)S(=O)(=O)N(C)C)cc1 | inactive: 13.9% |  |
| COc1ccc(NC(=O)CSc2nc(-c3ccc(OC)cc3)[nH]c2-c2ccc(OC)cc2)cc1 | inactive: 2.56% |  |
| Cc1ccc(C(=O)Nc2cccc(-c3nc4cccnc4s3)c2C)cc1 | inactive: -23.5% |  |
| Cc1cccc(CN2C(=O)c3ccccc3S(=O)(=O)c3ccc(C(=O)NCCC4=CCCCC4)cc32)c1 | inactive: 12.7% |  |
| COc1ccc(-c2cc(OC(=O)c3ccc(Cl)cc3)c3c(C)oc(C)c3c(=O)c2)cc1 | inactive: -18.1% |  |
| COc1ccc(-c2nc3ccccc3s2)cc1NC(=O)COc1ccc(C)cc1 | inactive: -6.98% |  |
| CCOc1ccc(NC(=O)CSc2nccn2Cc2ccco2)cc1 | inactive: 17.9% |  |

| SMILES | activity change, negative = cytotoxicity | Potency |
| --- | --- | --- |
| COc1ccc(NC(=O)c2cc3nc(-c4ccc(C)c(C)c4)cc(C(F)(F)F)n3n2)cc1 | inactive: 17% |  |
| CCc1ccccc1NC(=O)c1ccc2c(O)c(S(=O)(=O)c3ccccc3)c(=O)[nH]c2c1 | inactive: 1.65% |  |
| CCC1CCCCN1S(=O)(=O)c1ccc(C(=O)Nc2sc3c(c2C(=O)NC)CCC3)cc1 (stereo not given) | inactive: -0.93% |  |
| CCOc1ccc(CCNC(=O)c2cn(CC)c3ccc(S(=O)(=O)N4CCc5ccccc5C4)cc3c2=O)cc1OCC | inactive: -13.5% |  |
| CCn1c2ccccc2c2cc(CN3CCN(Cc4ccccc4F)CC3)ccc21 | inactive: 17.5% |  |
| CCc1ccccc1N1C(=O)N(Cc2ccc(C#N)cc2)c2ccccc2S1(=O)=O | inactive: 12.8% |  |
| CC(C)Sc1oc(-c2cccs2)nc1S(=O)(=O)c1ccc(Cl)cc1 | inactive: 3.39% |  |
| CCOc1ccc(OCC)c(NS(=O)(=O)c2cc(-c3cc(C)no3)ccc2C)c1 | inactive: -1.05% |  |
| CCOc1ccc(NC(=O)C2CCCN(S(=O)(=O)c3cccc4nonc34)C2)cc1 (stereo not given) | inactive: 1.4% |  |
| Cc1ccc(Nc2c(-c3cccs3)nc3nc(C)cc(C)n23)cc1 | inactive: 1.79% |  |
| CC(=O)c1ccc(NC(=O)CSc2nnc3ccc(-c4ccc(Cl)cc4)nn23)cc1 | inactive: 9.38% |  |
| CCOc1ccc(NC(=O)NCc2c(-n3cccc3)sc3c2CCCC3)cc1 | inactive: -0.104% |  |
| CCOc1ccccc1NC(=O)C(=O)NCCc1sc(-c2cccc(F)c2)nc1C | inactive: 21.7% |  |
| COc1ccc(-c2cc(C(F)(F)F)nc(S(=O)(=O)CCCC(=O)Nc3cccc(O)c3)n2)cc1OC |  | active: 8.91 µM |
| CCC(=O)Oc1ccc(/C=C(\C#N)c2nc3ccccc3[nH]2)cc1OC | inactive: -0.0022% |  |
| CCc1ccc(NCc2cc3cc4c(cc3n(CC(=O)Nc3ccc(C)cc3)c2=O)OCO4)cc1 | inactive: 1.57% |  |
| COc1ccccc1CNC(=O)CCC(=O)N1CC2CCCN2c2ccccc21 (stereo not given) | inactive: 1.48% |  |
| O=C(NCc1ccc2c(c1)CCN2C(=O)c1ccc(F)cc1)c1cc2ccccc2[nH]1 | inactive: -3.31% |  |
| c1ccc(CNc2nc3c(-c4ccccc4)nnn3c3ccccc23)cc1 | inactive: 1.51% |  |
| COc1ccc(SCc2cc(=O)c3cc(Cl)ccc3[nH]2)cc1 | inactive: -28.9% |  |
| Cc1cccc(C)c1OCCn1c(C2CC(=O)N(c3cccc(Cl)c3)C2)nc2ccccc21 (stereo not given) | inactive: 13.2% |  |
| COc1cccc(NC(=O)C2CCCN(S(=O)(=O)c3c(C)nn(C)c3C)C2)c1 (stereo not given) | inactive: -2.38% |  |
| O=C(Cc1ccc(Cl)cc1)Nc1ccc2nn(-c3ccc(Cl)cc3)nc2c1 | inactive: 13.9% |  |
| CCn1c(C(=O)NCCc2ccc(OC)c(OC)c2)cc2sc(Cl)cc21 | inactive: -3.82% |  |

| SMILES | activity change, negative = cytotoxicity | Potency |
| --- | --- | --- |
| O=C(Cn1cc(C(=O)c2ccco2)c2ccccc21)Nc1ccc(Br)cc1 | inactive: 0.913% |  |
| O=C(CSc1ccccc1)N1CCc2c([nH]c3ccccc23)C1c1ccc(F)cc1 (stereo not given) | inactive: -30% |  |
| CC1CCN(S(=O)(=O)c2cn(CC(=O)Nc3cccc(C(F)(F)F)c3)c(=O)c3ccccc23)CC1 | inactive: -16.7% |  |
| CCOC(=O)c1cnn(-c2ccc(C(=O)Nc3cc(OC)c(OC)c(OC)c3)cc2)c1N | inactive: -12% |  |
| CSc1ncc2c(n1)-c1ccccc1N(Cc1ccc(Cl)cc1)S2(=O)=O | inactive: 7.52% |  |
| COc1cccc(C(=O)Nc2cccc(C(=O)OCc3cc(=O)n4nc(C5CC5)sc4n3)c2)c1 | inactive: -9.07% |  |
| Nc1c(-c2nc(-c3cccs3)no2)nnn1-c1ccc(Cl)cc1 | inactive: 4.28% |  |
| CCCn1c2ccccc2c2cnn(CC(=O)N(C)c3ccc(F)cc3)c(=O)c21 | inactive: 6.52% |  |
| COc1cccc(CSc2nc3ccccc3c3nc(CCn4c(C)nc5ccccc54)nn23)c1 | inactive: 1.3% |  |
| CSc1ncc(Cl)c(C(=O)Nc2ccc(NC(C)=O)cc2)n1 | inactive: 2.66% |  |
| CCCCNc1nc(Oc2ccc(OCC)nn2)nc(N2CCOCC2)n1 | inactive: -2.37% |  |
| COc1cccc(NC(=O)c2ccc3nc(CCc4ccccc4)oc3c2)c1 | inactive: 2.87% |  |
| COc1ccc(Cl)cc1NC(=O)c1c(NCc2ccc(C)o2)sc2c1CCCCC2 | inactive: 12.9% |  |
| COc1ccccc1NC(=O)C1=C(C)Nc2c(C(=O)Nc3ccc(F)cc3)cnn2C1c1cccc([N+](=O)[O-])c1 (stereo not given) | inactive: -23.5% |  |
| CCCCN(C)c1nc2c(S(=O)(=O)c3ccc(CC)cc3)nnn2c2ccc(Cl)cc12 | inactive: -1% |  |
| COc1ccc(NC(=O)Cn2c(=O)n(-c3ccc(OC)c(OC)c3)c(=O)c3ccccc32)cc1 | inactive: 8.71% |  |
| COc1cc(C(CC(=O)NCc2ccc(F)cc2)N2Cc3ccccc3C2=O)cc(OC)c1OC (stereo not given) | inactive: 0.492% |  |
| O=C(C1CC1)N1CCc2cc(Br)cc(S(=O)(=O)N3CCN(c4cccc(C(F)(F)F)c4)CC3)c21 | inactive: 11.9% |  |
| COc1ccc(Cl)cc1C(=O)Nc1sc2c(c1C(=O)OC(C)C)CCCC2 | inactive: -2.28% |  |
| CCCCOc1ccc(-c2nn(-c3ccccc3)cc2C2NC(=O)NC(C)=C2C(=O)OC)cc1 (stereo not given) | inactive: -2.32% |  |
| CCOC(=O)c1ccc(NC(=O)c2c(-c3c(F)cccc3Cl)noc2C)cc1 | inactive: 0.976% |  |
| CCC(=O)N1CCc2cc(Br)cc(S(=O)(=O)N3CCC(C(=O)NCCCOC(C)C)CC3)c21 | inactive: 0.838% |  |
| Cc1cccc(N2CCN(c3ncnc4c3nc3n4CCCCC3)CC2)c1C | inactive: 26.3% |  |
